# Laboratory results as given in the supplement of paper PMC11181314.
# Some of the results follow. Single values of this set are uncertain.
# Test system: U2OS
# Test: Cell Painting induction (percent of morphological features significantly changed vs DMSO); higher = stronger morphological change
# Details: 10 µM; 20 h; run: confirmation repeat
# Method: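 Cell Painting assay in U2OS cells: compounds at 10 µM for 20 h, six dyes, 579 robust CellProfiler features as Z-scores vs DMSO median (MAD). Induction is the % of significantly changed features (active if ≥5%); relative cell count is in % of DMSO. The primary run holds DCM compounds preselected for induction ≥10%; the confirmation repeat defines active compounds (370 of 549). Replicate agreement is low, attributed to precipitation.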
# 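Note: stains mark DNA, RNA and nucleoli, ER, actin, Golgi, plasma membrane and mitochondria, read by high-content imaging, with DMSO controls at matching solvent concentration.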
row,Compound,Cell Painting induction
1,O=C(NCc1ccc(F)cc1)c1cccc2c1C(=O)N(Cc1cccnc1)C2,inactive: 4%
2,COc1ccc(N2CCN(CCCNS(=O)(=O)c3ccc4c(c3)oc(=O)n4C)CC2)cc1,active: 21.1%
3,COc1ccc(-c2cc(C(F)F)n3ncc(C(=O)N4CCN(c5cccc(Cl)c5)CC4)c3n2)cc1,active: 33.3%
4,Cc1cc2oc3c(c(=O)c2cc1C)C(c1ccc(C(C)C)cc1)N(CCCN1CCOCC1)C3=O (centres undefined),active: 8.5%
5,COc1ccc(-c2noc(CC(=O)Nc3ccc(C)cc3Cl)n2)cc1,inactive: 0.2%
6,CCOc1ccc(-n2c(SCCc3ccccc3)nc3sc4c(c3c2=O)CCN(C)C4)cc1,inactive: 0.2%
7,O=C(NCCN1CCN(C(=O)c2cccc(Br)c2)CC1)C(=O)Nc1ccc(Br)cc1,active: 24.5%
8,CCCCN(CCCNC(=O)c1ccc(CS(=O)(=O)c2c(Cl)cccc2Cl)o1)Cc1ccccc1,active: 45.4%
9,COc1cccc(N2CCN(C(=O)CN(c3cc(C)cc(C)c3)S(=O)(=O)c3c(C)noc3C)CC2)c1,inactive: 4.1%
10,CCN1CCN(C(=O)c2ccc3c(c2)c(C)c(C)n3Cc2ccccc2)CC1,active: 33.5%
11,O=C(Cn1c(O)c(/N=N/C(=O)c2ccncc2)c2ccccc21)Nc1ccccc1,inactive: 0%
12,Cc1ccc(NC(=O)Cn2cc(S(=O)(=O)c3ccccc3)c(=O)c3cc(F)ccc32)cc1,active: 47.3%
13,CC(C)(C)c1cc(S(=O)(=O)CCc2ccncc2)cc(C(C)(C)C)c1F,active: 31.6%
14,CCN(CC)CCCNC(=O)C1CCC(CNS(=O)(=O)c2c(C)cc(C)cc2C)CC1 (centres undefined),active: 32%
15,COC(=O)C1=C(C)NC(=O)/C1=C\c1cc(C)n(-c2ccccc2C)c1C,active: 13.8%
16,CCc1nc(SCC(=O)Nc2ccc(F)cc2)c2c(=O)n(C)c(=O)n(C)c2n1,active: 12.1%
17,Cn1c(=O)c2c(nc(CN3CCN(c4ccccc4)CC3)n2Cc2ccccc2Cl)n(C)c1=O,inactive: 2.1%
18,O=C(NCCN1CCN(Cc2ccccc2)CC1)c1ccc(CS(=O)(=O)c2ccc(Br)cc2)o1,active: 9.5%
19,O=C(c1cnn2c(C(F)F)cc(-c3ccccc3)nc12)N1CCCCC1c1cccnc1 (centres undefined),active: 20.4%

row,Compound,Cell Painting induction
1,CCN(C(=O)c1cc2c(O)nc3ccc(C)cc3c2s1)c1ccc(OC)cc1,active: 13%
2,Cc1cc(-c2ccc(C)c(S(=O)(=O)Nc3cccc(CN4CCCC4)c3)c2)on1,active: 24.4%
3,COc1ccc(-c2cc3ccccc3n2CC(O)CN2CCCCC2)cc1 (centres undefined),active: 39.7%
4,COc1cc(Nc2nc3ccc(Cl)cc3n3cnnc23)cc(OC)c1OC,active: 65.1%
5,COc1ccccc1CNc1ncnc2c1cnn2-c1ccc(Cl)cc1,active: 28%
6,N#CCCN(C(=O)c1ccc2c(=O)n3c(nc2c1)CCCCC3)c1ccccc1,active: 15.2%
7,Cc1cc(C(=O)Nc2c(C)nn(Cc3c(Cl)cccc3Cl)c2C)no1,active: 19.9%
8,CCC1CCCCN1CCCNC(=O)C1CCCN(c2ncnc3c2nc2n3CCCCC2)C1 (centres undefined),inactive: 4.5%
9,CCOc1ccc(-n2c(C)nc3c(cnn3-c3ccc(Cl)cc3)c2=O)cc1,inactive: 0.2%
10,CCc1nc2ccc(C(=O)NCCCN3CCN(c4ccccc4F)CC3)cc2nc1CC,active: 51.3%
11,CC(C)c1ccc(NC(=O)C2CCN(S(=O)(=O)c3ccc4c(c3)C(C)(C)C(=O)N4C)CC2)cc1,active: 27.6%
12,CN(CCNC(=O)C1CCCN(c2ncnc3c2nc2n3CCCCC2)C1)Cc1ccccc1 (centres undefined),active: 16.4%
13,O=S(=O)(NCC(c1ccco1)N1CCN(c2ccccc2F)CC1)c1ccc2c(c1)OCCO2 (centres undefined),active: 12.4%
14,C/N=C1\SC(C(=O)Nc2ccccc2Cl)CC(=O)N1c1ccc(OC(F)(F)Cl)cc1 (centres undefined),inactive: 1.7%
15,Cc1[nH]c2ccccc2c1CCN(Cc1cccnc1)C(=S)NC(C)(C)C,inactive: 1.7%
16,CC(C)C(=O)NC(c1ccc(N(C)C)cc1)c1c(O)ccc2ccccc12 (centres undefined),active: 5.2%
17,O=S(=O)(c1ccc(-c2ccc(O)nn2)o1)N1CCN(c2cccc(Cl)c2)CC1,active: 49.4%
18,COc1ccc(N2CCN(CCCNC(=O)Cn3c(=O)c4cccn4c4ccccc43)CC2)cc1,active: 8.5%

# Same assay, conditions: 10 µM; 20 h; run: primary screen (compounds selected for induction >=10%)
row,Compound,Cell Painting induction
1,O=C(NCc1ccc(F)cc1)c1cccc2c1C(=O)N(Cc1cccnc1)C2,12.6%
2,COc1ccc(N2CCN(CCCNS(=O)(=O)c3ccc4c(c3)oc(=O)n4C)CC2)cc1,27.8%
3,COc1ccc(-c2cc(C(F)F)n3ncc(C(=O)N4CCN(c5cccc(Cl)c5)CC4)c3n2)cc1,24.5%
4,Cc1cc2oc3c(c(=O)c2cc1C)C(c1ccc(C(C)C)cc1)N(CCCN1CCOCC1)C3=O (centres undefined),52.3%
5,COc1ccc(-c2noc(CC(=O)Nc3ccc(C)cc3Cl)n2)cc1,11.9%
6,CCOc1ccc(-n2c(SCCc3ccccc3)nc3sc4c(c3c2=O)CCN(C)C4)cc1,12.1%
7,O=C(NCCN1CCN(C(=O)c2cccc(Br)c2)CC1)C(=O)Nc1ccc(Br)cc1,33.3%
8,CCCCN(CCCNC(=O)c1ccc(CS(=O)(=O)c2c(Cl)cccc2Cl)o1)Cc1ccccc1,45.6%
9,COc1cccc(N2CCN(C(=O)CN(c3cc(C)cc(C)c3)S(=O)(=O)c3c(C)noc3C)CC2)c1,15.4%
10,CCN1CCN(C(=O)c2ccc3c(c2)c(C)c(C)n3Cc2ccccc2)CC1,26.8%
11,O=C(Cn1c(O)c(/N=N/C(=O)c2ccncc2)c2ccccc21)Nc1ccccc1,15.5%
12,Cc1ccc(NC(=O)Cn2cc(S(=O)(=O)c3ccccc3)c(=O)c3cc(F)ccc32)cc1,19.5%
13,CC(C)(C)c1cc(S(=O)(=O)CCc2ccncc2)cc(C(C)(C)C)c1F,44.7%
14,CCN(CC)CCCNC(=O)C1CCC(CNS(=O)(=O)c2c(C)cc(C)cc2C)CC1 (centres undefined),30.1%
15,COC(=O)C1=C(C)NC(=O)/C1=C\c1cc(C)n(-c2ccccc2C)c1C,34.9%
16,CCc1nc(SCC(=O)Nc2ccc(F)cc2)c2c(=O)n(C)c(=O)n(C)c2n1,21.6%
17,Cn1c(=O)c2c(nc(CN3CCN(c4ccccc4)CC3)n2Cc2ccccc2Cl)n(C)c1=O,24.5%
18,O=C(NCCN1CCN(Cc2ccccc2)CC1)c1ccc(CS(=O)(=O)c2ccc(Br)cc2)o1,10.7%
19,O=C(c1cnn2c(C(F)F)cc(-c3ccccc3)nc12)N1CCCCC1c1cccnc1 (centres undefined),13.3%

row,Compound,Cell Painting induction
1,CCN(C(=O)c1cc2c(O)nc3ccc(C)cc3c2s1)c1ccc(OC)cc1,46.8%
2,Cc1cc(-c2ccc(C)c(S(=O)(=O)Nc3cccc(CN4CCCC4)c3)c2)on1,21.4%
3,COc1ccc(-c2cc3ccccc3n2CC(O)CN2CCCCC2)cc1 (centres undefined),51.5%
4,COc1cc(Nc2nc3ccc(Cl)cc3n3cnnc23)cc(OC)c1OC,17.3%
5,COc1ccccc1CNc1ncnc2c1cnn2-c1ccc(Cl)cc1,28.5%
6,N#CCCN(C(=O)c1ccc2c(=O)n3c(nc2c1)CCCCC3)c1ccccc1,15.2%
7,Cc1cc(C(=O)Nc2c(C)nn(Cc3c(Cl)cccc3Cl)c2C)no1,16.8%
8,CCC1CCCCN1CCCNC(=O)C1CCCN(c2ncnc3c2nc2n3CCCCC2)C1 (centres undefined),15.5%
9,CCOc1ccc(-n2c(C)nc3c(cnn3-c3ccc(Cl)cc3)c2=O)cc1,12.6%
10,CCc1nc2ccc(C(=O)NCCCN3CCN(c4ccccc4F)CC3)cc2nc1CC,45.8%
11,CC(C)c1ccc(NC(=O)C2CCN(S(=O)(=O)c3ccc4c(c3)C(C)(C)C(=O)N4C)CC2)cc1,42.7%
12,CN(CCNC(=O)C1CCCN(c2ncnc3c2nc2n3CCCCC2)C1)Cc1ccccc1 (centres undefined),20.9%
13,O=S(=O)(NCC(c1ccco1)N1CCN(c2ccccc2F)CC1)c1ccc2c(c1)OCCO2 (centres undefined),15.9%
14,C/N=C1\SC(C(=O)Nc2ccccc2Cl)CC(=O)N1c1ccc(OC(F)(F)Cl)cc1 (centres undefined),21.1%
15,Cc1[nH]c2ccccc2c1CCN(Cc1cccnc1)C(=S)NC(C)(C)C,20.2%
16,CC(C)C(=O)NC(c1ccc(N(C)C)cc1)c1c(O)ccc2ccccc12 (centres undefined),20.2%
17,O=S(=O)(c1ccc(-c2ccc(O)nn2)o1)N1CCN(c2cccc(Cl)c2)CC1,54.6%
18,COc1ccc(N2CCN(CCCNC(=O)Cn3c(=O)c4cccn4c4ccccc43)CC2)cc1,11.7%
